# From the RNAGym collection of RNA variant scans (doi:10.7554/elife.90254)
# The source gives no read counts; variants with many changes may rest on few reads.
# B1: LINE1-mini (parent)
# chain: GGCAGAGCUCAACACAGCGUGGCAAAGUGGCUGUGGCUAGACUGCC
# Variants of: B1
# Assay: self-cleavage, relative activity (ratio to wild type); higher = more cleavage; in vitro, sequencing; the parent is a self-cleaving ribozyme
row,Variant,self-cleavage
1,C23U G30U U43C,0.09
2,G22U G35U C46A,0.31
3,G22U C23A G35U,0.54
4,C23G G30U A39C,0.09
5,C23U A24C A39C,0.02
6,C23U A24C A39G,0.06
7,C23A G40C C46U,0.05
8,G22U G27C A41C,0.07
9,C23U G27A U28G U32C A39U,0.08
10,C23G U32C G35A,0.05
11,G22U G36A C46U,0.06
12,G22U C23A G29A,0.6
13,C23A C31A C37A C42A,0.16
14,C23A G33C A39C,0.06
15,G22U A25G C31U U34C,0.03
16,C23U G27C U43C,0.05
17,C23U A24U A25G U34C,0.03
18,C23G G27C U28C,1.52
19,G22U G29U U32G C46A,0.07
20,C23A G36C C42A,0.03
21,G22U C31A U32C G35A,0.09
22,C23U A41G C42A G44C,0.07
23,C23G A25G G36A,0.06
24,C23A G36C C37G,0.02

row,Variant,self-cleavage
1,C23A G35A G40A,0.05
2,C23A A24G A25U G30A G44C,0.24
3,C23G G40U C42G G44A C46U,0.04
4,G22U A25U U38A A39G,0.14
5,C23U G30U G36U C46A,0.03
6,G22U G36C A39U,0.07
7,G22C G27U C42U,0.16
8,C23U A25C G35C,0.1
9,C23G C31A C42A,0.03
10,G22U A26U C45G,0.77
11,C23A G33U U34G,0.04
12,C23A U34C G36A,0.21
13,C23G C31G A41U,0.03
14,C23G G29U G36A,0.03
15,G22C U38A A41G C42U,0.31
16,C23U A26C U43C,0.03
17,G22U A24C U38A,0.47
18,G22U A24C U38C,0.32
19,C23A G33U U38A,0.75
20,C23U G35U G40U C45U,0.13
21,C23U G36A C42G,0.05
22,C23A G27U U28C,0.37
23,C23U A26C G29U,0.75
24,C23U U28C C42U,0.34

row,Variant,self-cleavage
1,C23U G33A U34G A39U G40U,0.03
2,G22U A41U C46G,0.49
3,C23U G36A C37G,0.04
4,G22U C23U C31U,0.65
5,C23U A25U C37G A41G,0.02
6,C23A G29U C31A,0.04
7,G22U G27A C46G,0.97
8,C23U A25C G35U U43C,0.09
9,C23U U32A G33A,0.05
10,C23G A26U U38A G40U,0.06
11,C23U A25U G27A,0.57
12,C23A G27U G33A,0.18
13,C23U G40C G44C,0.02
14,G22U C37A C46G,0.03
15,C23U G35U G44A,0
16,G22U G27A G29A G30C C31A,1.73
17,G22U G40U U43C,0.1
18,C23G G27A G35A C42U,0.14
19,G22U G33C U38G G40U,0.03
20,C23A U28C G30A,1.78
21,C23U C31U G36U C46A,0.14
22,G22U G27U G44A,0.36
23,G22U G36C C45A,0.18
24,C23U C31U G35A,0.02

row,Variant,self-cleavage
1,G22C U34C C42U,0.02
2,C23U A25G C31G,0.13
3,G22U C23A U43C,0.07
4,C23U G33U C46A,0.04
5,C23A G29U C37G,0.02
6,C23G U28G G29U,0.53
7,C23U C37A U38A,0.02
8,C23U G27C C46G,0.46
9,C23A C31U U34A,0
10,C23U U28C A41U,0.22
11,C23U A25C G27A C31G,0.05
12,C23A U34C G35A C45A,0.02
13,C23G G29A C45A,1.93
14,C23A A41G C42A,0.12
15,C23A A41G C42G,0.1
16,C23A U32C G33U,0.09
17,C23G G30U U34C G40U,0.03
18,C23A G27C G29C G36C G40C,0.01
19,C23A A24U A25U C31G A41G,0.01
20,C23G G35U C42U,0
21,G22U G36U G44A,0.28
22,C23G A24U G40U C45G,0.01
23,G22U G36A C45A,0.12
24,C23U G27C U38C U43C,0.02

row,Variant,self-cleavage
1,C23U G35U G36A,0.29
2,G22U A39G G44A,0.17
3,C23U G29A U32C,0.2
4,C23A A25G U43A,0.09
5,G22U A25U A41U C45A,0.1
6,C23G G33A U34G,0.01
7,C23A A41C C42A,0.05
8,G22C U28G U32A,0.07
9,G22U A26U C31U C42G,0.29
10,C23U A25C G27A G40A A41U,0.04
11,C23G U28A C45G,0.07
12,G22U U34A G36U A41C,0.06
13,G22U C23A U34A A39U,0.27
14,C23A A24U G30U G36U,0.04
15,C23G A24U G44U,0.13
16,C23A G30U G33U C46G,0.07
17,C23U C31G G35C,0.06
18,C23G A26C C46A,0.63
19,C23A U34A C42A,0.08
20,G22U G27U C37A,0.03
21,C23G U32A G35A G36A,0.09
22,C23G U28C G29U G30U,0.38
23,C23A G30A G40A,0.31
24,C23A A25C A26U C45U,0.51

row,Variant,self-cleavage
1,C23A U34G C46A,0.09
2,G22U G30A C37U,0.04
3,C23U A24C C37G C45G,0
4,G22U C23A U32C U38A,0.07
5,C23G C37G C45U,0.04
6,G22U G27C C46A,0.24
7,G22U A26C G29U,0.24
8,C23U A26U G29A C37G,0.02
9,C23G G30U G35A C42A,0.02
10,C23A A25C U32A U34C C37A A39G,0.25
11,C23A C37A C46G,0.24
12,G22U C23G C31G C46A,0.1
13,C23A G29C C45A,0.23
14,C23A G29U U32A C46A,0.13
15,G22C U28A G30U,0.12
16,G22U G27C U38C C42U,0.09
17,C23G C31A U32G G36A,0.07
18,C23G A25C U28A G29U,0.41
19,G22U A26G C45U,0.75
20,C23U A24G G27U,0.7
21,C23U U28C C46A,1.23
22,G22U G30A U32C,0.08
23,G22C G29C U43G,0.01
24,C23U G27U C42U C46U,0.19

row,Variant,self-cleavage
1,C23A G30U G35A,0.04
2,C23G A26C G44A C46G,0
3,C23A G29U A39C U43A C45G,0.99
4,C23G U28G C46U,0.03
5,C23A G29U C46A,0.29
6,C23U U28C C45G,0.61
7,C23U U28C C45A,0.2
8,C23U G27A U32A C37A,0.02
9,C23U U28G G30C U38C U43A C45U,0.05
10,G22U U28C G30A G36C A41U,0.18
11,C23A A24C C37G C46A,0.02
12,G22U G27C A39U,1.22
13,G22U G29U G33A C46G,0.06
14,C23G C31A U43A C46G,0
15,C23A C37A A41U,0.09
16,G22U A25C U32C G33U A41C,0.03
17,G22U G30C G36U C45U,0.11
18,G22U A39G C45U,0.11
19,G22U U43A G44U,0.1
20,C23A G27U G33U C45A,0.02
21,G22U A25G U32G C46U,0.05
22,C23G G30A U32G U38G G44A C45G,0.06
23,C23A U38A C42U,0.66
